In patent US20160009824A1 (Merck KGaA, published 2016):

Molecular target: T1, Human CD47 (coated on ELISA plates) (human, UniProt Q08722 part only, limits assumed)
T1 construct: construct not described; also called immobilized CD47
Assay: ELISA on plate-coated human CD47, detection with HRP goat anti-human IgG Fcγ, A450

EC50 (read off the curve): ~1 nM
B1: Fc-(G4S)4-anti-CD47(VHCH1) (Fc fusion)
chain: [human IgG1 Fc with changes not shown]GGGGSGGGGSGGGGSGGGGSG[about 200 residues not shown]
light: DIVMTQSPATLSVTPGDRVSLSCRASQTISDYLHWYQQKSHESPRLLIKFASQSISGIPSRFSGSGSGSDFTLSINSVEPEDVGVYYCQNGHGFPRTFGGGTKLEIKRTVAAPSVFIFPPSDEQLKSGTASVVCLLNNFYPREAKVQWKVDNALQSGNSQESVTEQDSKDSTYSLSSTLTLSKADYEKHKVYACEVTHQGLSSPVTKSFNRGEC
notes: Fc-Fab precursor, 'full tetrameric molecule'
